About 520 (0.14%) of roughly 360,000 compounds were called active. Inconclusive results, whose numbers are uncertain, are shown with a selection of clear calls. Calls come from the whole dose curve; as a rule, active = well fitted inhibition curve with a large enough effect; inconclusive = small, poorly fitted or top-dose-only effect; inactive = no such curve, though single readings can be large or run the other way. Potencies of inconclusive entries are doubtful fits and often do not repeat.
target: Rap guanine nucleotide exchange factor 3 (Homo sapiens) (UniProt O95398); test: qHTS for Antagonist of cAMP-regulated guanine nucleotide exchange factor 3 (EPAC1): primary screen; conditions: EPAC1 GEF assay, Rap1b-BODIPY-GDP exchange fluorescence; activity change, negative = inhibition: at 115 µM (top of the series); note: nearly all actives have a fitted effect of over 50% in size;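 for activity change, negative = inhibition: plate controls were vehicle for no effect and positive control for full effect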
Sequence of UniProt O95398 (O95398 whole entry, looked up): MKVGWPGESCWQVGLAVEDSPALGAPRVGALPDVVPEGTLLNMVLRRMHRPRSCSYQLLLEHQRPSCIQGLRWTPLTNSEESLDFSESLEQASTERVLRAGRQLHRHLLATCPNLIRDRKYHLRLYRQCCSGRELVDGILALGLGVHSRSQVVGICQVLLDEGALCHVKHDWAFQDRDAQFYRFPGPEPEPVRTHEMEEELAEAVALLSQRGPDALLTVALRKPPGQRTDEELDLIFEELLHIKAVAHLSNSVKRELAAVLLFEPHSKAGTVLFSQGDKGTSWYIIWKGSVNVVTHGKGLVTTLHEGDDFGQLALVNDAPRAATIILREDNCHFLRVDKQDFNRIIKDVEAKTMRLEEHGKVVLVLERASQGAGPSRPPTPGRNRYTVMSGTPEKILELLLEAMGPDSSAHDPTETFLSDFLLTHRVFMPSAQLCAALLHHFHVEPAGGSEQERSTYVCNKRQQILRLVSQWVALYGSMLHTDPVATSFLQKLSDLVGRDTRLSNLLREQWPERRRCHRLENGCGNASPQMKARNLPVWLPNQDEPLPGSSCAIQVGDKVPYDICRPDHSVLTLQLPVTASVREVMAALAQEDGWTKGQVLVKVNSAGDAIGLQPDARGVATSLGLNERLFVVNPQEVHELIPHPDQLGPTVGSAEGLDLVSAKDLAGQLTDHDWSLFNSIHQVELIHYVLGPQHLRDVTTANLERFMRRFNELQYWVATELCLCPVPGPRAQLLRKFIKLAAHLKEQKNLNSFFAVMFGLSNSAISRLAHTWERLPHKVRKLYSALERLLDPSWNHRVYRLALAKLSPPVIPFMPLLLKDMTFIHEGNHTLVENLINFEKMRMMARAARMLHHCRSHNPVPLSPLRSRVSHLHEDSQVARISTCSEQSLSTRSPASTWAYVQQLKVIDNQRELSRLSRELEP
Potency is the fitted concentration of half-maximal effect; tags give direction and shape of the fitted curve.

Potency, inconclusive:
Cc1cc2nc(-c3ccc(Cl)cc3)c(Cc3cccc(F)c3)n2c(C)c1Br 89.1 µM [inhibitor, partial curve, poor fit], Cc1ccc(-c2nnn(CC(=O)N(c3cnc4ccccc4c3)C(C(=O)NC3CCCC3)c3ccncc3)n2)o1 (stereo unspecified) 79.4 µM [inhibitor, single point], S=C(c1ccc(-c2cccc(Cl)c2)o1)N1CCCCC1 79.4 µM [inhibitor, partial curve], COc1ccc(C(=O)OCC(=O)Nc2cccc(C(C)=O)c2)c(OC)c1OC 70.8 µM [inhibitor, single point], CCOC(=O)c1cnn(-c2nc(-c3cccc(F)c3)cs2)c1C(F)(F)F 50.1 µM [inhibitor, partial curve], COc1cccc(/C=C2/NC(=O)N(CC(=O)Nc3ccc(C)cc3)C2=O)c1OCc1cccc(C(=O)O)c1 22.4 µM [inhibitor, partial curve, poor fit], O=C(Nc1cc(-c2ccccc2)sc1C(=O)O)c1cccc(F)c1 79.4 µM [inhibitor, partial curve, poor fit], Cc1ccc(NC(=O)C(=O)NNC(=O)c2cccs2)cc1 35.5 µM [inhibitor, partial curve], CS(=O)(=O)N1CCN(c2ccc([N+](=O)[O-])c(NCc3ccc(Cl)cc3)c2)CC1 50.1 µM [inhibitor, partial curve], COc1ccc(Br)cc1/C=N/Nc1ccc(S(=O)(=O)Nc2ccccc2C(=O)O)cc1[N+](=O)[O-] 35.5 µM [inhibitor, full curve], COc1ccc(Cl)cc1-c1cc(C(=O)Nc2ccc(F)cc2)[nH]n1 79.4 µM [inhibitor, partial curve, poor fit], CC1CN(C(=O)N2CCOCC2)CCN1C(=O)N1CCOCC1 (stereo unspecified) 56.2 µM [inhibitor, partial curve, poor fit], O=C(NCc1ccco1)c1ccc(-c2ccc(Cl)cc2)o1 89.1 µM [inhibitor, single point], CCOC(=O)C1=C[C@@H](c2ccccc2)N(S(=O)(=O)c2ccc(C)cc2)[C@H]1c1ccc(F)cc1 31.6 µM [inhibitor, full curve, poor fit], O=[N+]([O-])c1ccc(O)c(C2=NNC(c3ccccc3F)C2)c1 (stereo unspecified) 79.4 µM [inhibitor, partial curve], Cc1cccc(NC(=O)Cn2nc(-c3ccco3)ccc2=O)c1C 100 µM [inhibitor, single point], COc1ccc(NC(=O)CC2C(=O)N(c3ccccc3)C(=O)N2CCc2cccs2)cc1 (stereo unspecified) 89.1 µM [inhibitor, single point], CCC(=O)Nc1ccc(C(=O)NNC(=O)c2ccc([N+](=O)[O-])cc2)cc1 89.1 µM [inhibitor, single point], CCCc1ccc(S(=O)(=O)N(C)S(=O)(=O)c2ccc(F)cc2)cc1 7.94 µM [inhibitor, full curve, poor fit], CCCNC(=S)NCc1ccc(Cl)cc1 50.1 µM [inhibitor, partial curve], CCOc1ccc(C(CC(=O)O)NC(=O)Cc2ccccc2)cc1OC (stereo unspecified) 89.1 µM [inhibitor, partial curve], O=C(CCl)Nc1ccc(Sc2ccc(NC(=O)CCl)cc2)cc1 56.2 µM [inhibitor, partial curve], Nc1ccc(S(=O)(=O)c2cc(O)c3ccccc3c2O)cc1 70.8 µM [inhibitor, partial curve], CCN(CC)C(=O)c1cccc2nc3ccccc3nc12 89.1 µM [inhibitor, single point], NS(=O)(=O)c1ccc(NC(=O)COC(=O)C2(c3ccccc3F)CCCC2)cc1 35.5 µM [inhibitor, partial curve, poor fit], O=C(CCN1CCN(C(=O)c2ccccc2)CC1)c1ccc(Br)cc1 89.1 µM [inhibitor, partial curve], COc1cc([N+](=O)[O-])ccc1NC(=S)NNC(=O)CCC(=O)Nc1ccccc1Cl 100 µM [inhibitor, single point], Cc1ccc(NC(=O)CN2CCc3cc4c(cc3C2C)OCCCO4)cc1 (stereo unspecified) 35.5 µM [inhibitor, full curve, poor fit], COc1ccc(/C=C2\Oc3cc(OCC(N)=O)ccc3C2=O)cc1OC 2.82 µM [inhibitor, full curve], N#Cc1c(N2CCCC2)nc(N)c2c(N)nc(N3CCCC3)cc12 7.94 µM [inhibitor, full curve, poor fit], NC(=O)c1cc2ccccc2o/c1=N/NC(=O)c1ccccc1 14.1 µM [inhibitor, single point], Cc1[nH]c2ccccc2c1/C=N/NC(=O)c1cccc(S(=O)(=O)Nc2cccc(C(F)(F)F)c2)c1 35.5 µM [inhibitor, partial curve]

Potency, active:
COc1ccc(C(=O)Nc2cccc(/C=C(/CCC(=O)O)c3nc4ccccc4s3)c2)cc1 35.5 µM

Activity change, negative = inhibition, inactive:
O=C(N/N=C/c1ccccc1O)C1CC(=O)N(c2ccc(F)cc2)C1 (stereo unspecified) -7.28%, CSc1ccccc1OCc1cc(C(=O)N(C)Cc2nonc2C)no1 -23%, O=C(COC(=O)C1COc2ccccc2O1)NC1CCCCC1 (stereo unspecified) -8.39%, COc1ccc(N=Cc2c(O)ccc3ccccc23)cc1 13.7%, O=C1c2cccc3c(N4CCCCC4)ccc(c23)C(=O)N1CCO -19.8%, CCCCCCn1c(SCC(=O)OC)nc2c1c(=O)[nH]c(=O)n2C 12.5%, O=C(NCC(=O)N1CC=C(c2ccccc2)CC1)c1ccc(OC(F)F)cc1 9.69%, O=C1OCCN1C(=O)[C@H]1[C@H](c2ccc([N+](=O)[O-])cc2)C(c2cccc(Cl)c2)=NN1c1ccccc1 -5.76%

From PubChem BioAssay AID720709 (National Center for Advancing Translational Sciences (NCATS), 2013)
